From article PMC4336329 (PLoS ONE, 2015)
About 14,000 (4.5%) of roughly 310,000 compounds showed an effect of 50% or more. Effects have a minus sign here. The list shows a part of the results.

Target: human ether-à-go-go-related gene (hERG) potassium channel (human, UniProt Q12809)
Test: primary screen, population patch clamp on CHO cells stably expressing hERG
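Further: peak tail current of the secondary pulse compared with the same well before compound.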

Sequence of human ether-à-go-go-related gene (hERG) potassium channel (Q12809 whole entry, looked up): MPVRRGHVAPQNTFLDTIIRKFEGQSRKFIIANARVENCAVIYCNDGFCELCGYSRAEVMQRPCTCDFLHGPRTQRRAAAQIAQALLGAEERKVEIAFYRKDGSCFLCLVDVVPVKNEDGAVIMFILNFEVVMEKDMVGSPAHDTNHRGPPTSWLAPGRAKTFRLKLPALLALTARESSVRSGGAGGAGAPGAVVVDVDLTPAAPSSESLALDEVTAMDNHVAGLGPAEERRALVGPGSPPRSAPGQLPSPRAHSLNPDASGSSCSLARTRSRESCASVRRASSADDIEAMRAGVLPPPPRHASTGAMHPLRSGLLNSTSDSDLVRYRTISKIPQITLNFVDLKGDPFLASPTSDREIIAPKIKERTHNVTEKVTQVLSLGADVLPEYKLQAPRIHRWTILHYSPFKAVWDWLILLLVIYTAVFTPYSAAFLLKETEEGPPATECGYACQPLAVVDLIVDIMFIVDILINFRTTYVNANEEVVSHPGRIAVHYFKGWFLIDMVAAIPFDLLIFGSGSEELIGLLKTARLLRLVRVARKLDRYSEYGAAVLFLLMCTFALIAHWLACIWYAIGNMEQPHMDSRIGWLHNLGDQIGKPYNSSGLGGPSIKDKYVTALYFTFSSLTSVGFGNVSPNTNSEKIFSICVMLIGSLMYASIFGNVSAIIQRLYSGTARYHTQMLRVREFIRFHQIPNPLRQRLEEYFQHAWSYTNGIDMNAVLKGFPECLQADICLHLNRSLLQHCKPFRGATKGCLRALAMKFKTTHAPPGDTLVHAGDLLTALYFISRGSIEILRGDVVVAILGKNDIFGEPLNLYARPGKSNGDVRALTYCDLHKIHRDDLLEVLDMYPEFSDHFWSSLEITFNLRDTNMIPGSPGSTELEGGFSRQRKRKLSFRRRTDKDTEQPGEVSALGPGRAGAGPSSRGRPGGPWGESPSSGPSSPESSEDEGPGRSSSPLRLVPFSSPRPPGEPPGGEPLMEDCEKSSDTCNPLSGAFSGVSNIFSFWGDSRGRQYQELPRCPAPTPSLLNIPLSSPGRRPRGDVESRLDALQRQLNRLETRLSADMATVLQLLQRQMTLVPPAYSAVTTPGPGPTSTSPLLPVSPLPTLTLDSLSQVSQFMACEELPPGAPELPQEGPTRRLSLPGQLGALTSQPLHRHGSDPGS

In order of falling “hERG current change (%, negative = inhibition) at 10uM” value:
1. CCCNC(=O)C(=O)N/N=C/c1ccc(OCc2ccccc2)cc1  26.9%
2. S=C(Nc1ccccc1Cl)N1CCCC1  21.9%
3. N#CCNC(=O)C1c2ccccc2Oc2ccccc21  21.6%
4. Cc1ccc2[nH]c(=O)c(CN(CCc3ccccc3)C(c3nnnn3Cc3ccco3)C(C)C)cc2c1 (centres unmarked)  21.2%
5. O=C(/C=C/c1ccncc1)c1cc(Cl)ccc1O  18.7%
6. CCCCC(=O)Nc1ccc(C(=O)NNC(=O)c2cccs2)cc1  16.2%
7. CC1=NN(c2ccccc2)C(=O)/C1=C\c1cc(C)n(-c2cccnc2)c1C  15.1%
8. CC(C)c1ccc(C(O)P(=O)(OCc2ccccc2)c2ccc(N(C)C)cc2)cc1 (centres unmarked)  14.6%
9. COc1ccccc1N1CCN(/N=C/c2ccccc2C(=O)O)CC1  13.8%
10. Cc1cccc(CSc2nc3c(cc2C#N)CCC3)c1  13.7%
11. O=C(COc1ccc(Cl)cc1)Nc1ccc(C(=O)O)cc1NC(=O)COc1ccc(Cl)cc1  13.2%
12. Cc1nc2c(-c3ccc(F)cc3)c(C)nn2c(C)c1CCC(=O)Nc1ccc(F)cc1F  12.9%
13. COc1ccc(CCNC(=O)C2CCCN(S(C)(=O)=O)C2)cc1OC (centres unmarked)  12%
14. CCCCc1cc2c(c(NC(C)=O)n1)c(=O)oc1ccccc12  11.3%
15. O=C(O)CSc1nnc(-c2ccccc2)o1  10.9%
16. O=C(COC(=O)c1cc(=O)[nH]c(=O)[nH]1)NCc1ccccc1  10.5%
17. CCC(C(=O)NCCCN1CCN(CC)CC1)n1nc(C)n2c(cc3occc32)c1=O (centres unmarked)  8.68%
18. Cc1cc([N+](=O)[O-])c2ccccc2[n+]1[O-]  8.51%
19. CC(=O)Nc1ccccc1C(=O)C(=O)Nc1ccc(Cl)cc1  8.48%
20. COc1ccc(C(=O)NC(=S)Nc2cccc3nc(C)ccc23)cc1OC  8.45%
21. COc1ccc(S(=O)(=O)N2CCN(C)CC2)cc1C(=O)N1CCCCC1  8.37%
22. Cc1cccc(C2Nc3cccc4cccc(c34)N2)c1  8.36%
23. COc1ccc(N(C=O)C(=S)SC)cc1  8.27%
24. COC(=O)C1=C(COc2ccccc2)NC(=O)NC1c1ccc2ccccc2c1 (centres unmarked)  8.15%
25. CCOC(=O)C1=C(C)N(c2ccc(OCC)cc2)C(=O)/C1=C\c1ccco1  8.11%
26. CCCCc1ccc(NC(=O)N[C@@H](CC(C)C)C(=O)O)cc1  7.73%
27. COc1ccc(CC(=O)NCc2n[nH]c(=S)n2-c2cccc(Cl)c2)cc1  7.32%
28. COc1ccc(C(=O)OCC(=O)Nc2ccc(N3CCOCC3)cc2)cc1  7.25%
29. O=c1c(S(=O)(=O)c2ccc(Cl)cc2)cn(Cc2ccccc2)c2ccc(F)cc12  6.02%
30. CCOC(=O)c1[nH]c(C)c(C(=O)NCc2ccc(C)cc2)c1C  5.32%
31. O=c1cc(Cl)[nH]c(=O)n1Cc1ccc(F)cc1  5.07%
32. Cn1c(C2=C(O)CN(Cc3ccccc3)C2=N)nc2ccccc21  4.82%
33. CCCN1C(=O)CSC1=Nc1ccccc1  4.34%
34. CNC(=O)c1c(NC(=O)c2ccc(S(=O)(=O)N(C)c3ccccc3)cc2)sc2c1CCN(C(C)C)C2  2.88%
35. CC(=O)C1=C(O)C(=O)N(Cc2ccco2)C1c1ccc(F)cc1 (centres unmarked)  2.43%
36. NC(=O)Cn1nc([N+](=O)[O-])nc1Oc1ccc(Br)cc1  2.26%
37. O=C(NC1CCCC1)C(c1ccccc1)N(C(=O)c1ccno1)c1ccccc1 (centres unmarked)  1.77%
38. CC(=O)N1CCN(c2ccc(N=Cc3c(O)n(-c4ccc(Cl)cc4)c(=O)[nH]c3=O)cc2)CC1  1.55%
39. CCO/N=C(/C)c1c(O)cc(-c2ccccc2)n(-c2ccccc2)c1=O  1.16%
40. O=C(Nc1ccc2c(c1)OCCO2)C(c1ccc(F)cc1)N1CCCCC1 (centres unmarked)  -0.538%
41. Cc1ccc(NC(=O)CN2C(=O)NC(Cc3c[nH]c4ccccc34)C2=O)cc1 (centres unmarked)  -0.576%
42. CCOC(=O)N1CCC(NC(=O)c2cc(-c3ccc(F)cc3)[nH]c2C)CC1  -0.721%
43. O=C1CCc2cc(S(=O)(=O)N3CCN(c4cccc(Cl)c4)CC3)ccc2N1  -1.42%
44. CCCCn1c(N)c(N(CC(C)C)C(=O)c2cc3c(s2)CCC3)c(=O)[nH]c1=O  -2.24%
45. C/C=C(\C)C(=O)NCCN1C2=NC[C@H](Cc3ccc(O)cc3)N2C[C@@H]1Cc1ccc(OC)cc1  -2.89%
46. CCc1ccccc1NC(=O)CN1C(=O)C2CCCN2c2ncc(Cl)cc21 (centres unmarked)  -3.09%
47. COc1cccc(N(CC(=O)NCCN2CCOCC2)S(=O)(=O)c2ccccc2)c1  -4.96%
48. CC(C)(O)CC[C@@H](O)[C@](C)(O)[C@H]1CC[C@@]2(O)C3=CC(=O)[C@@H]4C[C@@H](O)[C@@H](O)C[C@]4(C)C3CC[C@]12C (some centres unmarked)  -5.1%
49. CCOc1ncccc1C(=O)Nc1ccc(F)cc1  -5.46%
50. Cc1onc(-c2c(Cl)cccc2Cl)c1C(=O)Nc1ccc(C(N)=O)cc1  -5.71%
51. Clc1ccccc1OCCn1ccnc1  -6.02%
52. Cc1ccc(C(=O)C(C)OC(=O)CNS(=O)(=O)c2ccc(C)cc2)cc1 (centres unmarked)  -6.12%
53. O=C(COC(=O)c1ccccc1-c1ccccc1[N+](=O)[O-])c1ccccc1  -7.23%
54. CCCCn1c(N)c(N(CC(C)C)C(=O)c2ccc(Cl)c(S(=O)(=O)N3CCCC3)c2)c(=O)[nH]c1=O  -8.15%
55. CCOc1ccc(C(=O)C(CN2CCOCC2)c2ccccc2)cc1.Cl (centres unmarked)  -8.5%
56. O=C(NN1C(=O)NC2(CCCCC2)C1=O)c1ccc(-c2ccc([N+](=O)[O-])cc2)o1  -8.54%
57. COc1cc(C(=S)N2CCC(C(N)=O)CC2)ccc1O  -8.67%
58. Cc1cccc(OCCOCCN2CCOCC2)c1C  -10.5%
59. Cc1ccc(-c2cc(C(=O)N/N=C/c3ccco3)[nH]n2)cc1  -12.1%
60. O=C(Nc1cccc2ncccc12)c1cc2ccccc2o1  -12.8%
61. O=C(Cn1nc(-c2ccccc2)nc1-c1ccccc1)N1CCOCC1  -13.5%
62. O=C(C1CCN(S(=O)(=O)c2cccc3cccnc23)CC1)N1CCN(Cc2ccccc2)CC1  -14.9%
63. S=C(Nc1ccc(Cc2ccncc2)cc1)Nc1cccc(Cl)c1  -15%
64. CC(C)Cn1c(N)c(C(=O)COC(=O)CC23CC4CC(CC(C4)C2)C3)c(=O)n(C)c1=O  -16.2%
65. CCS(=O)(=O)C1=NSC2=NC(=O)/C(=C\c3cc(C)n(-c4cccc(OC)c4)c3C)C(=N)N21  -17.4%
66. CCOC(=O)N/N=C/c1c(C)nn(-c2ccccc2Cl)c1Cl  -17.6%
67. O=C1C=C(c2ccccc2)C[C@H](c2cccs2)[C@H]1n1cnc([N+](=O)[O-])c1  -18.8%
68. Cc1ccc(NC(=O)COC(=O)c2cccc(OC(F)F)c2)cc1S(=O)(=O)N1CCCCC1  -21.1%
69. Cc1nc2c(C(=O)N3CCCC3)cnn2c(C)c1Cc1c(F)cccc1Cl  -25.7%
70. O=C(C1=C[C@H](C2CC2)C[C@H](OCCCCO)O1)N1CCN(Cc2ccc3c(c2)OCO3)CC1  -26.3%
71. CCOc1ccc(-c2nc(CSCC(=O)N3CCN(C(=O)c4ccco4)CC3)c(C)o2)cc1  -28.8%
72. C/C(N)=C(/C#N)C(=O)CSc1nc(C2CCCCC2)n(-c2ccccc2)n1  -30%
73. Cc1ccc(C)c(S(=O)(=O)N2CCN(C(=O)c3ccc(C)s3)CC2)c1  -32.1%
74. Cn1cc(Cl)c(C(=O)N/N=C/c2ccc(OS(=O)(=O)c3ccccc3)cc2)n1  -33.1%
75. Cc1nc(SCC(=O)c2ccccc2)c(C#N)c(-c2ccco2)c1C(=O)NCc1ccco1  -33.9%
76. CCCN1C(=O)c2cc(C(=O)Nc3ccccc3OC)ccc2C1Nc1ccccc1OC (centres unmarked)  -34.7%
77. Cc1ccc(CNC(=O)Cn2c(=O)c3sccc3n(Cc3ccc([N+](=O)[O-])cc3)c2=O)cc1  -37.9%
78. Cc1ccc(NC(=O)COC(=O)c2cccc3c2C(=O)c2ccccc2C3=O)c(C)c1  -38.6%
79. CCCCN(C)c1c(N2CCC(C(=O)OCC)CC2)c(=O)c1=O  -43.7%
80. CCNC(=O)CSc1nnc(-c2ccccc2)n1-c1ccc(OCC)cc1  -62.8%
81. Cc1c(CCOC(=O)c2ccc([N+](=O)[O-])cc2)sc[n+]1CC(=O)c1ccccc1.[Br-]  -63.7%
82. CCc1nc(N2CCN(C(=O)c3ccco3)CC2)c2oc3ccccc3c2n1.Cl  -64.8%
83. O=C(NCc1ccc2c(c1)OCO2)c1cc(-c2ccncc2)nc2ccccc12  -67%
